# In article PMC4336329 (PLoS ONE, 2015):
# Screen size: about 310,000 compounds; about 14,000 (4.5%) showed an effect of 50% or more. The effect is printed as a negative number. The list shows a part of the results.
# Target: human ether-à-go-go-related gene (hERG) potassium channel (human, UniProt Q12809)
# Assay: primary screen, population patch clamp on CHO cells stably expressing hERG
# 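Further: peak tail current of the secondary pulse compared with the same well before compound.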
# human ether-à-go-go-related gene (hERG) potassium channel, sequence (Q12809 whole entry, looked up): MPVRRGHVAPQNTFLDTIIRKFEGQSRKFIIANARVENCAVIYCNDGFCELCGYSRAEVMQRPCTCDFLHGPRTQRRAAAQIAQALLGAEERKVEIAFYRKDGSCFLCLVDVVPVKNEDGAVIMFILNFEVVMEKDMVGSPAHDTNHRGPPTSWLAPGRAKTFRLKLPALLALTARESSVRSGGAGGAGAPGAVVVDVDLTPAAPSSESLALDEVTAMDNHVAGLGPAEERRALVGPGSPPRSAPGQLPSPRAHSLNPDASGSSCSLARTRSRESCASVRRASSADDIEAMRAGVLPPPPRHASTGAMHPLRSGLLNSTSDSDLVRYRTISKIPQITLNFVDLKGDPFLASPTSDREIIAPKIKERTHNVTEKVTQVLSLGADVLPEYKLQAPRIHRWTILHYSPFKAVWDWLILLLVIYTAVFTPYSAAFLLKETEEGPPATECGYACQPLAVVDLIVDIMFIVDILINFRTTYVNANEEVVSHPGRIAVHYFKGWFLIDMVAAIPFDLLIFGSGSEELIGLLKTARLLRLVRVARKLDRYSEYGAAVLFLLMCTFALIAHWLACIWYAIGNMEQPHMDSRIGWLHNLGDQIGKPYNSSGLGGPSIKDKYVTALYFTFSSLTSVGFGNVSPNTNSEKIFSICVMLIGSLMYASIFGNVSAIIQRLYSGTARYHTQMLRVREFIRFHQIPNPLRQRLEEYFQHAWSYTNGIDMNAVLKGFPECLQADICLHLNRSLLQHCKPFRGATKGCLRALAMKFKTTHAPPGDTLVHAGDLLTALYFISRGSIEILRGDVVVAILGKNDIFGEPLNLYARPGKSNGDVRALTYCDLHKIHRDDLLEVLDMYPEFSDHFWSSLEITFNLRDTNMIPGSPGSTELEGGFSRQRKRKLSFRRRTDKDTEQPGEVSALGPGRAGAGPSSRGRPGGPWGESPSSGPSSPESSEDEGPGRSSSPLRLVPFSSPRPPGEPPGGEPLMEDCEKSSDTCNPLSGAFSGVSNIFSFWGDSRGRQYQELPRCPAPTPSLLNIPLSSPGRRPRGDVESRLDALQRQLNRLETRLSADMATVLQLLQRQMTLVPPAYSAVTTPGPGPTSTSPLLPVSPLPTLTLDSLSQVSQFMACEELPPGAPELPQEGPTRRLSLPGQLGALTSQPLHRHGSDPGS
row,SMILES,"hERG current change (%, negative = inhibition) at 10uM [%]"
1,CCN1CCN(CCC(=O)Nc2ccccc2)CC1,8.58
2,Cc1ccnc(-n2c(-c3ccco3)nc3ccccc3c2=O)c1,-12.4
3,Cc1ccc(OCC(=O)N2CCC3(CC2)CC(=O)c2ccccc2O3)cc1,-73.3
4,COc1cc(C2C3=C(CCCC3=O)Nc3c2c(C)nn3-c2cccc(C)c2)cc(OC)c1O (centres unmarked),-0.666
5,COc1cccc(CN2CC(C(=O)NC3CCC3)CCC2=O)c1 (centres unmarked),17.7
6,COc1ccc(CN2CCCC(C(=O)Nc3cccc(-n4cccn4)c3)C2)c(F)c1 (centres unmarked),-30.3
7,CC1(C)Cc2c(sc3nnn(Cc4ccccc4)c(=O)c23)CO1,-16.5
8,CCOc1ccc(N(CC(=O)O)S(=O)(=O)c2cccnc2)cc1,7.01
9,COc1ccccc1CN1CCN(S(=O)(=O)c2ccc(C)cc2)CC1,-19
10,CCCn1nnc(NC(=O)c2cccc(Cl)c2)n1,13.1
11,O=C(NC(=S)Nc1nc2c(s1)CCCC2)c1ccc(C(=O)c2ccccc2)cc1,18.8
12,CCOC(=O)NCc1ccc2c(c1)cc(C)n2C,-7.56
13,Cc1cccc(C(=O)c2ccccc2C(=O)O)c1,18
14,CC(=O)NC(C)C(=O)OCC(=O)Nc1ccc(Br)cc1 (centres unmarked),1.95
15,CCOCCOc1nc2c(c(=O)n(C)c(=O)n2C)n1CCc1ccccc1,0.435
16,O=C(NNC(=O)c1ccc[nH]1)c1cccc(C(F)(F)F)c1,30.7
17,Cl.c1ccc(C2CNCCc3ccccc32)cc1 (centres unmarked),-33.6
18,CCn1nc(C)cc1C(=O)N1CCCC(Nc2ccc(F)c(F)c2)C1 (centres unmarked),7.74
19,CCOc1cc(S(=O)(=O)NCCCn2ccnc2)ccc1Cl,-64
20,C=CCNC(=O)C1CCN(c2ccc(S(=O)(=O)N3CCOCC3)cc2[N+](=O)[O-])CC1,-24
21,CC(CCc1ccccc1)NC(=O)CNC(=O)N1CC(=O)Nc2ccccc21 (centres unmarked),-2.77
22,COC(=O)c1ccc(CN2C(=O)C(C)N(C(=O)c3c(F)cccc3F)c3ccccc32)cc1 (centres unmarked),10.1

row,SMILES,"hERG current change (%, negative = inhibition) at 10uM [%]"
1,CCOc1ccc(-c2nnc(SCc3nc4ccccc4[nH]3)n2N)cc1,-34.3
2,O=C(COc1ccccc1)Nc1c2c(nn1-c1ccc(F)cc1)CS(=O)(=O)C2,-0.258
3,COc1ccc(-c2nnc(SCC(=O)N(C)C3CCS(=O)(=O)C3)n2N)cc1OC (centres unmarked),19.8
4,CC(C)N(C)C1CCN(C(=O)Nc2ccc(Cl)cc2)CC1,-31
5,COc1ccc(S(=O)(=O)Nc2ccc(Oc3ccsc3C(=O)O)cc2)cc1,25
6,COc1ccc(C2c3ccc(O)cc3Oc3ncn(Cc4ccccc4)c(=N)c32)cc1OC (centres unmarked),-51.7
7,COc1cc(NC(=O)CCN2CC(C)OC(C)C2)cc(OC)c1 (centres unmarked),2.79
8,Cc1ccc(Cl)cc1N(Cc1ccc(C(=O)NCc2cccnc2)cc1)S(=O)(=O)c1ccccc1,0.526
9,COc1ccc(OCCn2c(=N)n(CCO)c3ccccc32)cc1.Cl,-24.2
10,CC(C)c1ccc(C2NC(=O)NC3=C2CCc2ccccc23)cc1 (centres unmarked),-33.5
11,CCOC(=O)c1c2c(n(C)c1C)C(=O)C(=O)c1ccc(Br)cc1-2,19.6
12,CCOc1ccc(NC(=O)c2ccc(NCC(=O)N3CCCCCC3)cc2)cc1,3.07
13,COc1ccc(C(=O)N2CCCc3ccccc32)cc1Br,-29.4
14,O=C1CC(O)(C(F)(F)F)Oc2c1ccc1ccccc21 (centres unmarked),7.95
15,CCOC(=O)c1c(NC(=O)COC(=O)CNC(=O)c2ccco2)sc(C)c1C,-5.35
16,Cc1ccsc1C(=O)C1CCCN(Cc2ccc(O)cc2)C1 (centres unmarked),-22.9
17,COc1nc(-c2ccccc2)ccc1-c1noc(C)n1,-5.52
18,COc1ccc(NC(=O)CSc2sc3c(O)cc(=O)[nH]c3c2C#N)c(OC)c1,9.73
19,C/C(=N\Nc1nc(-c2cc(C)ccc2C)cs1)c1cc2ccccc2oc1=O,29.3
20,Cc1nc2ccccc2c(=O)n1-c1cccc(C(F)(F)F)c1,-3.18
21,OC(COc1ccc2c(c1)CCC2)CN1CCN(c2ccccc2F)CC1 (centres unmarked),-14.6
22,CCC(CC)C1C(C#N)=C(N)Oc2n[nH]c(C)c21 (centres unmarked),-5.96
